Counter-ions that a name gives are not always drawn. ± gives the standard deviation of the averaged measurements. Over roughly 2,600 compounds, “total cell number (DAPI+ nuclei) relative to DMSO vehicle control” has its median near -1.4; the lowest 2% begin near -23. Some of the results follow.
tested on: jimpy (Plp1 jimpy) mouse iPSC-derived oligodendrocyte progenitor cells; assay: total cell number (DAPI+ nuclei) relative to DMSO vehicle control (SDs above negative control mean); higher = more surviving cells; conditions: 10 µM; 3 days

Going from `NC(Cc1cc(O)c(O)cc1O)C(=O)O` (racemic) [6-Hydroxy-DL-DOPA] to `Cc1o[nH]c(=O)c1CC(N)C(=O)O` (racemic) [(±)-AMPA hydrobromide], the total cell number rises from -2.36 to 1.67.

Going from `O=c1[nH]oc2c1CCNC2` [THIP hydrochloride] to `COc1ccc2[nH]c3c(c2c1)CCNC3` [6-Methoxy-1,2,3,4-tetrahydro-9H-pyrido[3,4b] indole], the total cell number rises from -1.74 to -0.987.

Compared with `CC(C)(C)c1cc(C=C(C#N)C#N)cc(C(C)(C)C)c1O` [Tyrphostin 9], `CC(C)(C)c1cc(C=C(C#N)C#N)cc(Br)c1O` is higher in total cell number: -11.8 for the first, -0.125 for the second.

`Cc1cc(C(C#N)c2ccc(Cl)cc2)c(Cl)cc1NC(=O)c1cc(I)cc(I)c1O` (centres undefined) [Closantel Sodium] and `O=C(O)c1nn(Cc2ccc(Cl)cc2Cl)c2ccccc12` [Lonidamine] are within error of each other in total cell number: -1.35 for the first, -0.86 ± 1.1 for the second.

Compared with `Cc1cc(C(C#N)c2ccc(Cl)cc2)c(Cl)cc1NC(=O)c1cc(I)cc(I)c1O` (centres undefined) [Closantel], `NCC(CC(=O)O)c1ccc(Cl)cc1` (racemic) [(±)-Baclofen] is higher in total cell number: 0.325 for the first, 0.506 for the second.

`CCOC(=O)c1ncn2c1[C@@H]1CCCN1C(=O)c1cc(OC)ccc1-2` and `Cc1cccc(C)c1NC(=O)CN1CCCC1=O` [Nefiracetam] are within error of each other in total cell number: -0.836 for the first, -0.796 ± 0.35 for the second.

Going from `CCC1(C2=NCCN2)Cc2ccccc2O1` (centres undefined) [Efaroxan hydrochloride] to `c1ccc2c(c1)Nc1ccccc1S2` [Phenothiazine], the total cell number rises from -1.57 to 0.518.

Compared with `CC[C@@H](CO)NC(=O)[C@@H]1C=C2c3cccc4[nH]cc(c34)C[C@H]2N(C)C1` [Methylergonovine maleate], `COC1=C[C@@H]2[C@@H]3Cc4ccc(OC)c(O)c4[C@]2(CCN3C)CC1=O` [Sinomenine] is higher in total cell number: -1.22 for the first, 0.57 for the second.

First: CC(=O)[C@H]1CC[C@H]2[C@@H]3CC[C@H]4C[C@H](O)CC[C@]4(C)[C@H]3CC[C@]12C [5alpha-Pregnan-3alpha-ol-20-one]
Second: CC(=O)[C@H]1CC[C@H]2[C@@H]3CC[C@H]4C[C@](C)(O)CC[C@]4(C)[C@H]3CC[C@]12C [Ganaxolone]
The total cell number of the first is higher: -0.448 for the first, -1.31 for the second.

Going from `CN1CC[C@@]2(C)c3cc(O)ccc3N(C)C12` (single isomer, unassigned; (-)) [(-)-Eseroline fumarate] to `CN1CC[C@]2(CCN3CCc4c(oc5ccccc45)[C@@H]3C2)N(C)C1=O`, the total cell number rises from -3.73 to -0.37.

Compared with `CC(C)[C@]12O[C@H]1[C@@H]1O[C@]13[C@]1(O[C@H]1C[C@H]1C4=C(CC[C@@]13C)C(=O)OC4)[C@@H]2O` [Triptolide (PG490)], `C/C(=C\c1csc(C)n1)[C@@H]1C[C@@H]2O[C@@H]2CCC[C@H](C)[C@H](O)[C@@H](C)C(=O)C(C)(C)[C@@H](O)CC(=O)O1` [Epothilone A] is higher in total cell number: -11 for the first, -7.62 for the second.

First: N[C@]1(C(=O)O)CC[C@H](C(=O)O)C1 (racemic) [trans-(±)-ACPD]
Second: O=C1CC[C@@]2(O)[C@H]3Cc4ccc(O)c5c4[C@@]2(CCN3CC2CC2)[C@H]1O5 [Naltrexone HCl]
The total cell number of the first is lower: 0.987 for the first, 1.24 for the second.

Compared with `CC(NC(C)(C)C)C(=O)c1cccc(Cl)c1` (centres undefined) [Bupropion hydrochloride], `CC(C)NC(C)Cc1ccc(I)cc1` (centres undefined) [Iofetamine hydrochloride] is higher in total cell number: 0.698 for the first, 3.11 for the second.

Going from `CC(NC(C)(C)C)C(=O)c1cccc(Cl)c1` (centres undefined) [Amfebutamone HCl] to `CN(C)CCc1ccc(O)cc1` [Hordenine], the total cell number rises from -0.515 to 1.24.

First: Oc1ccc2c3c1O[C@H]1c4[nH]c5ccccc5c4C[C@@]4(O)[C@@H](C2)N(CC2CC2)CC[C@]314 [Naltrindole hydrochloride]
Second: O=C1CC[C@@]2(O)[C@H]3Cc4ccc(O)c5c4[C@@]2(CCN3CC2CC2)[C@H]1O5 [Naltrexone hydrochloride]
The total cell number of the first is lower: -5.19 for the first, 0.926 for the second.

First: Cn1c(CCCC(=O)O)nc2cc(N(CCCl)CCCl)ccc21 [Bendamustine hydrochloride]
Second: COC(=O)N1CCN(C(=O)Cc2ccc(Cl)c(Cl)c2)C(CN2CCCC2)C1 (centres undefined)
The total cell number of the first is lower: -1.55 for the first, -1.17 for the second.

First: Cn1c(CCCC(=O)O)nc2cc(N(CCCl)CCCl)ccc21 [Bendamustine HCl]
Second: Cc1cccc(Cc2c[nH]cn2)c1C [Detomidine HCl]
The total cell number of the first is lower: -4.33 for the first, 4.09 for the second.

First: N[C@@H]1C[C@H]1c1ccccc1 [Tranylcypromine hydrochloride]
Second: CN1[C@@H]2C[C@@H](OC(=O)[C@H](CO)c3ccccc3)C[C@H]1[C@@H]1O[C@@H]12 [(-)-Scopolamine hydrobromide]
The total cell number of the first is lower: -2.97 for the first, -1.19 for the second.

First: N[C@@H]1C[C@H]1c1ccccc1 [Tranylcypromine (2-PCPA) HCl]
Second: CN1[C@@H]2C[C@@H](OC(=O)[C@H](CO)c3ccccc3)C[C@H]1[C@@H]1O[C@@H]12 [Scopolamine HBr]
The total cell number of the first is lower: -2.05 for the first, 0.365 for the second.

First: CO[C@H]1CC[C@@H](O[C@H]2C[C@H]([C@]3(C)CC[C@]4(C[C@H](O)[C@@H](C)[C@@H]([C@@H](C)/C=C(\C)C(=O)[C@H](C)C[C@H](C)C(=O)O)O4)O3)O[C@]3(O[C@@H]([C@H]4O[C@@](O)(CO)[C@H](C)C[C@@H]4C)C[C@@H]3C)[C@@H]2C)O[C@@H]1C [Nanchangmycin]
Second: CC[C@@H](C(=O)[C@@H](C)[C@@H](O)[C@H](C)[C@@H]1O[C@@H]([C@@H](CC)C(=O)O)CC[C@@H]1C)[C@H]1O[C@]2(C=C[C@@H](O)[C@]3(CC[C@@](C)([C@H]4CC[C@](O)(CC)[C@H](C)O4)O3)O2)[C@H](C)C[C@@H]1C [Salinomycin]
The total cell number of the first is lower: -27.5 for the first, -8.31 for the second.

Going from `[O-][n+]1ccccc1[S-].[O-][n+]1ccccc1[S-].[Zn+2]` [Zinc Pyrithione] to `CN1CCCCC1Cn1cc(C(=O)c2cc([N+](=O)[O-])ccc2I)c2ccccc21` (centres undefined), the total cell number rises from -16.1 to -10.8.

Going from `N#CC(C#N)=Cc1ccc(O)c(O)c1` [Tyrphostin 23] to `O=c1ccc2cc(O[C@@H]3O[C@H](CO)[C@@H](O)[C@H](O)[C@H]3O)c(O)cc2o1` [Esculin], the total cell number rises from -1.53 to 0.804.

First: NC(=O)CI [Iodoacetamide]
Second: N=C(NCCC[C@H](N)C(=O)O)N[N+](=O)[O-] [NG-Nitro-L-arginine]
The total cell number of the first is lower: -3.69 for the first, -1.18 for the second.

Compared with `C=CCN1CC[C@]23c4c5ccc(O)c4O[C@H]2C(=O)CC[C@@]3(O)[C@H]1C5` [Naloxone HCl], `O=C(NCC1CCOCC1)c1cnc(Nc2ccc(Cl)cc2Cl)nc1C(F)(F)F` is lower in total cell number: 1.03 for the first, -0.705 for the second.

Going from `C=CCN1CC[C@]23c4c5ccc(O)c4O[C@H]2C(=O)CC[C@@]3(O)[C@H]1C5` [Naloxone hydrochloride] to `O=C1C=CC[C@@H]2[C@H]3CCCN4CCC[C@@H](CN12)[C@@H]34` [Sophocarpine], the total cell number falls from -0.148 to -0.691.

First: C[C@@H]1CC[C@@]2(OC1)O[C@H]1C[C@H]3[C@@H]4CC=C5C[C@@H](O[C@@H]6O[C@H](CO)[C@@H](O[C@@H]7O[C@@H](C)[C@H](O)[C@@H](O)[C@H]7O)[C@H](O)[C@H]6O[C@@H]6O[C@@H](C)[C@H](O)[C@@H](O)[C@H]6O)CC[C@]5(C)[C@H]4CC[C@]3(C)[C@H]1[C@@H]2C [Dioscin]
Second: CC(=O)O[C@H]1C[C@@H]2CC[C@@H]3[C@H](CC[C@@]4(C)[C@H]3C[C@H]([N+]3(C)CCCCC3)[C@@H]4OC(C)=O)[C@@]2(C)C[C@@H]1[N+]1(C)CCCCC1 [Pancuronium dibromide]
The total cell number of the first is lower: -15.1 for the first, -1.01 for the second.

Compared with `C[C@@H]1O[C@H](C[N+](C)(C)C)C[C@H]1O` (racemic) [(±)-Muscarine chloride], `CCCN(CCC)C1Cc2cc(OC)c(OC)cc2C1` is higher in total cell number: 0.257 for the first, 1.68 for the second.

Compared with `CP(=O)(O)C1=CCNCC1`, `NC(=O)c1cc(N2CC2)c([N+](=O)[O-])cc1[N+](=O)[O-]` is lower in total cell number: -2.01 for the first, -3.47 for the second.

Going from `Cn1cc(C2=C(c3cn(C4CCN(Cc5ccccn5)CC4)c4ccccc34)C(=O)NC2=O)c2ccccc21` to `CC(=O)O[C@H]1C[C@@H]2CC[C@@H]3[C@H](CC[C@@]4(C)[C@H]3C[C@H]([N+]3(C)CCCCC3)[C@@H]4OC(C)=O)[C@@]2(C)C[C@@H]1[N+]1(C)CCCCC1` [Pancuronium bromide], the total cell number rises from -8.32 to -0.512.

In the case of `COC(=O)[C@@H](N)CCCNC(=N)N[N+](=O)[O-]` [NG-Nitro-L-arginine methyl ester hydrochloride], the total cell number is reported as -0.269.

From the supplement of paper PMC6135742
